According to PubChem BioAssay AID1362 (SRMLSC, 2008):
The other results are listed elsewhere or left out. The main result of the screen is listed elsewhere. These columns were measured beside it and carry no call. The list favours compounds with an active or inconclusive main result.

assay: growth inhibition of WT strain, primary screen, mitochondrial fusion inhibitor project, WT and mutant strains, chemical genetic (AID 1362); conditions: mitochondrial fusion phenotypic screen, at 10 µM; note: tested in S. cerevisiae

SMILES	inhibition [%]
Cc1cc(C(=O)Nn2c(-c3ccc(Br)cc3)nc3ccccc3c2=O)ccc1[N+](=O)[O-]	22.2
CC(=O)Nc1ccc(Sc2ncnc3scc(-c4ccccc4)c23)cc1	71.1
O=C(O)C1C2C=CC(C2)C1C(=O)Nc1ccc(C(=O)N2CCCCC2)cc1 (stereo unspecified)	-16.9
Cc1cccc(N=Nc2ccc(O)c3ncccc23)c1	54
CCC(C)(C)c1ccc(Oc2ccc(N)cc2)cc1	23.2
Brc1ccc(CSc2nnc(Cc3c[nH]c4ccccc34)o2)cc1	25.2
O=C(CC12CC3CC(CC(C3)C1)C2)NC(=S)NCc1ccco1	32.8
CCOc1ccccc1NC(=O)NC(=O)N(C)S(=O)(=O)c1ccc(C)cc1	-7.93
O=c1c2ccccc2n(Cc2cccc(F)c2)c(=O)n1C1CCCC1	42.9
S=C(NNc1ccc2ccccc2c1)NC1CCCCC1	66
C=CCOc1c(Br)cc(/C=N/Nc2ccc(C(=O)O)cc2)cc1OCC	-23.3
COc1cc(Nc2nc(-c3ccccc3)c3cc(C)ccc3n2)cc(OC)c1OC	7.79
CCn1c(C)cs/c1=N\C(=S)Nc1ccccc1C	59.6
CCOC(=O)c1cnc(-n2nc(C)cc2C)nc1NCc1ccccc1	52.8
Cc1ccc(S(=O)(=O)NCc2ccco2)c(C)c1C	0.1
CCCc1ccc(Oc2c(-c3ccc(O)c(C)c3O)n[nH]c2C)cc1	88.4
Cc1oc2c(c1C(=O)c1ccc(Cl)cc1)C(=O)C(=O)c1ccccc1-2	73.8
O=C1c2ccccc2CCC12N=NCC2c1ccc(Br)cc1 (stereo unspecified)	41.4
Oc1ccc(Cl)cc1-c1cc(-c2ccccc2)n[nH]1	44.1
O=S(=O)(Nc1cccc2ncccc12)c1cccs1	16.3
CC/C(=C\C1CCCCC1)C(NP(=O)(c1ccccc1)c1ccccc1)c1ccccc1 (stereo unspecified)	-0.13
CN(C)CCCN(C(=O)c1ccc2c(c1)CCCC2)c1nc2ccc(F)cc2s1	85.3
O=c1c2ccccc2cnn1-c1nc2ccccc2[nH]1	85.1

SMILES	inhibition [%]
NCC12CC3CC(C1)CC(c1ccc(Cl)cc1)(C3)C2	51.3
O=C(NCC(c1cccnc1)N1CCOCC1)c1ccco1 (stereo unspecified)	18.2
Fc1ccc(-c2nc(-c3cccs3)[nH]c2-c2ccc(F)cc2)cc1	58.6
CC(C)c1ccccc1NC(=S)NN(Cc1ccccc1)c1ccccc1	25.8
COC(=O)c1ccc(C2N=C(c3cccs3)CC(c3ccccc3O)N2)cc1 (stereo unspecified)	32.8
CC(C)C(NS(=O)(=O)c1cccc2nsnc12)C(=O)Nc1nc2ccc(Cl)cc2s1 (stereo unspecified)	45.8
CC12CCC(O)CC1=CCC1C2CCC2(C)C1CCC21CCC(=O)O1 (stereo unspecified)	17.5
CCn1c(=O)c([N+](=O)[O-])c(Cl)c2ccccc21	50.4
Cc1nc2ccccc2c2oc(C(=O)Nc3ccc(C(C)C)cc3)cc12	5.14
CN(C)CCCN(C(=O)CCc1ccccc1)c1nc2ccc(F)cc2s1	81.3
Cc1c(CN(C)C)c2c(n1Cc1ccccc1)C(=O)c1ccc(Br)cc1-2	79
O=C(CSc1nnc(-c2cnccn2)n1Cc1ccco1)c1ccccc1	97.1
CC(=O)N1N=C(c2cccc([N+](=O)[O-])c2)OC1c1cccc(Br)c1 (stereo unspecified)	42.8
Cc1nn(-c2ccccc2)c(Cl)c1C(=O)OC(C)C(=O)NC(=O)NC1CCCCC1 (stereo unspecified)	44.8
O=C(c1cnccn1)N1CCc2c([nH]c3ccccc23)C1c1cccc(Cl)c1 (stereo unspecified)	36
CC(CNC(=O)COc1ccccc1)OC(=O)Nc1ccc(Cl)c(Cl)c1 (stereo unspecified)	79.2
COc1cccc(NC(=S)NCCC(c2ccccc2)c2ccccc2)c1	60
Cn1c(=O)cc(OCCCC(=O)N2CCN(c3ccccc3)CC2)c2ccccc21	-0.45
COCCN(C(=S)Nc1ccc(C)c(C)c1)C(C)c1ccco1 (stereo unspecified)	10.7
CC(=O)Nc1cccc(NC(=O)CSc2nnnn2Cc2ccccc2)c1	-5.39
Cn1c(=O)c2c(nc(N3CCCCCC3)n2Cc2cccc3ccccc23)n(C)c1=O	23.2
C=CCn1c(O)c(C2=c3ccccc3=NC2=O)sc1=Nc1ccc(O)cc1	59
CN1CCN(c2nc(NCCOC34CC5CC(CC(C5)C3)C4)nc(OCC(F)(F)F)n2)CC1	34.5

SMILES	inhibition [%]
O=C(Nc1ccccc1)OC1CCC2CC1CCC2OC(=O)Nc1ccccc1 (stereo unspecified)	34.6
CCOc1ccc(NC(=S)NN(C)C(=S)Nc2ccc(OCC)cc2)cc1	3.29
CC1=C/C(=N\NC(=S)NCCc2ccccc2)CC(C)(C)C1	64.6
COc1ccc(Cl)cc1C(=O)CSc1nnnn1C1CCCCC1	43.3
C=CCn1c(SCc2csc(C)n2)nc2sc3c(c2c1=O)CCCC3	32.7
CCOc1ccccc1NC(=O)C(NCC1CCCCC1)c1ccccc1 (stereo unspecified)	-3.31
CCc1ccccc1NC(=S)NCCSc1ccc(Cl)cc1	60.8
O=C(c1ccc(COc2ccc(Cl)cc2)cc1)N1CCCCC1	47.7
CCCCc1ccc(NC(=S)NCCc2ccc(F)cc2)cc1	55
CCCCSc1cnn(-c2ccccc2)c(=O)c1SCCCC	5.26
Cc1csc(NC(=O)c2cc(-c3ccccc3)nc3ccccc23)n1	34.3
Cc1cccc(OCc2n[nH]c(=S)n2C2CCCCC2)c1	38.7
O=C(NCc1ccco1)c1cccnc1-c1nc2ccccc2s1	12.4
CCOC(=O)c1cnc2ccc(OCC)cc2c1N1CCN(c2ccccc2OC)CC1	38.3
CC1CCc2c(C(=O)Oc3cccc(-n4cnnn4)c3)csc2C1 (stereo unspecified)	21.9
CC(C)c1ccc(NC(=S)NCc2ccc3c(c2)OCO3)cc1	29.4
CSc1nc2ccc(NS(=O)(=O)c3cccc(Cl)c3Cl)cc2s1	52.3
O=C(CN1CCN(c2ncc(C(F)(F)F)cc2Cl)CC1)N1CCN(c2ncc(C(F)(F)F)cc2Cl)CC1	64.3
N#C/C(=C\c1cccc(NC(=O)c2ccccc2Cl)c1)C(=O)NCCc1ccccc1	22.7
Cc1ccsc1C(=O)OCc1csc(-c2ccccc2)n1	51.7
CN(C)c1cc[n+](CC(=O)Nc2ccc(Oc3ccccc3)cc2)cc1	74.4
CCCCCCCSc1nsc(N)n1	51.3
CC(NCC(O)COCCC12CC3CC(CC(C3)C1)C2)c1ccccc1 (stereo unspecified)	72.4

SMILES	inhibition [%]
O=[N+]([O-])c1ccc(/C=N/Nc2nc(N3CCCCC3)nc(N3CCCCC3)n2)o1	48.9
Cc1cc(C)nc(Nc2ncc(O)n2-c2ccccc2)n1	-35.8
CN(C)CCCN(C(=O)c1ccc2c(c1)CCCC2)c1nc2ccc(Cl)cc2s1	68.1
FC(F)(F)c1ccc(Cl)c(N/N=C/c2ccc(N3CCOCC3)s2)c1	39.7
O=S(=O)(NCCc1csc(-c2ccc(C(F)(F)F)cc2)n1)c1ccc2c(c1)OCCO2	43.4
Cc1cccc(N=N/C(=C\O)C(=O)c2ccc(Br)cc2)c1	96.2
NCCc1c(-c2ccccc2)n(-c2ccccc2)c2ccccc12	37.5
CCC(=O)Nc1ccc(Br)c(Cl)c1	-1.56
CCCCN(CCCC)C1=Nc2ccccc2N/C1=C(/C#N)C(=O)OCC	-6.03
COc1ccccc1-c1cc(C(F)(F)F)nc(N2CCCCC2)n1	42.5
CSC(=S)N/N=C(\C)c1ccc(Br)cc1	39.7
S=C(NCc1ccccc1)NC1CCCc2ccccc21 (stereo unspecified)	65.5
C=C(C)C1Cc2c(C)nn(-c3nc(C)cc(C)n3)c2C1 (stereo unspecified)	51
O=C(NC(=S)N1CCN(Cc2ccc3c(c2)OCO3)CC1)c1cccc(Br)c1	51.3
COc1ccc(CNCCc2ccc(Cl)cc2)cc1OCc1ccccc1	80.9
Cc1ccccc1NC(=S)NC(C)CCc1ccccc1 (stereo unspecified)	58.1
C=CCn1c(SCc2csc(-c3ccc(C)cc3)n2)nnc1-c1ccccc1OC	41.7
O=C(/C=C/c1ccc(Cl)cc1Cl)NCCSc1ccccc1	29.3
Cc1ccc(COn2c(-c3ccc(Cl)cc3Cl)nc3ncccc32)cc1	44.9
CCOc1ccc(NC(=S)Nc2cccc3cnccc23)cc1	54.1
Cc1ccc(-c2nc(N)sc2-c2ccc(C)cc2)cc1	29.5
OCC1(CCOc2ccccc2)CCN(CC2=Cc3cc(Cl)ccc3OC2)CC1	86.3
COc1cccc(NC(=S)N(CCCN2CCCC2)Cc2cccn2Cc2ccc(Cl)cc2)c1	20.1

SMILES	inhibition [%]
O=C(Nc1nc(-c2ccccc2)cs1)c1ccc(Br)o1	51.1
CC(C)Cn1c(N)c(C(=O)NCC2CCCO2)c2nc3ccccc3nc21 (stereo unspecified)	51.6
O=C(Nc1cccc(F)c1)c1cc(S(=O)(=O)NCCC2=CCCCC2)ccc1F	10.9
Cc1ccc(-c2cc(C(F)F)n3ncc(C(=O)Nc4c(C)nn(Cc5ccccc5Cl)c4C)c3n2)cc1	12.9
O=C(NC(=S)Nc1ccc(CN2CCCCC2)cc1)c1cccc(OCc2ccccc2)c1	64
Cc1ccc(/C(=N\O)c2oc3c(C)c4oc(=O)cc(C)c4cc3c2C)cc1	-0.86
COc1ccc(OCCNC(=S)Nc2cccc3ccccc23)cc1	55.4
Cc1ccccc1OCCSCc1nc2ccccc2[nH]1	59.4
CC(=O)Nc1ccc(S(=O)(=O)NCC(=O)OCC(=O)N2CCc3ccccc32)cc1	3.77
CSc1ccc(CN2CCC(CO)(Cc3ccc(Cl)cc3)CC2)cc1	54.5
COc1ccc(-c2cc(C(=O)N3CCN(c4ncccn4)CC3)c3ccccc3n2)c(OC)c1	28.1
Cc1cccc(-n2ncc3c(N4CC(C)CC(C)C4)ncnc32)c1 (stereo unspecified)	23.3
COCCN(C(=S)Nc1ccc(C(C)C)cc1)C(C)c1cccs1 (stereo unspecified)	-8.75
N#Cc1ccccc1Sc1ccccc1C(=O)Nc1ccc(Br)cc1	6.45
O=C(COC(=O)Cc1c(Cl)cccc1Cl)Nc1ccccc1-c1ccccc1	-14.2
CC1=C(OC(=O)c2ccccc2)C(C)(C)C(c2ccc(Br)cc2)OC1=O (stereo unspecified)	41.5
Cn1c(Oc2ccc3c(c2)OCO3)nc2c1c(=O)n(Cc1ccccc1)c(=O)n2C	-0.56
Cc1ccc(-c2nnc(-c3ccccc3)c(-c3ccccc3)n2)cc1	48
CC(NC(=O)COc1ccccc1-c1ccccc1)c1ccccc1 (stereo unspecified)	5.14
